Results reported in PubChem BioAssay AID2147 (National Center for Advancing Translational Sciences (NCATS), 2009).
Screen size: about 230,000 compounds; about 3,600 (1.6%) were called active. Inconclusive results, whose numbers are uncertain, are shown with a selection of clear calls. Calls come from the whole dose curve; as a rule, active = well fitted inhibition curve with a large enough effect (not every such curve was filed as active); inconclusive = small, poorly fitted or top-dose-only effect, or another doubt; inactive = no such curve, though single readings can be large or run the other way. Potencies of inconclusive entries are doubtful fits and often do not repeat.

Biological target: Lysine-specific demethylase 4E (Homo sapiens) (UniProt B2RXH2)
Sequence of UniProt B2RXH2 (B2RXH2 whole entry, looked up, the tested form may be a part): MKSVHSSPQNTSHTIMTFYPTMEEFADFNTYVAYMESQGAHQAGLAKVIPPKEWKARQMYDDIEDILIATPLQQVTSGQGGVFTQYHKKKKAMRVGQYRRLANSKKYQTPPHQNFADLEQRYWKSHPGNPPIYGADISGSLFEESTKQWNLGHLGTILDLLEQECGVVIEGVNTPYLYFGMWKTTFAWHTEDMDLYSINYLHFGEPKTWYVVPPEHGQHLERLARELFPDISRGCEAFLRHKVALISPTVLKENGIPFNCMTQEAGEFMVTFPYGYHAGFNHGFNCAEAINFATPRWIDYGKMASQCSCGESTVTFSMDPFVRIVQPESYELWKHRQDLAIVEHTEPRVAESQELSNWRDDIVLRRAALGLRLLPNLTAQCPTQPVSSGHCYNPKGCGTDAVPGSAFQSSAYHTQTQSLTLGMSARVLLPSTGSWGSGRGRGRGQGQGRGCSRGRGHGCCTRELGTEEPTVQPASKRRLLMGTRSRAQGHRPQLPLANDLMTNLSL
Assay: qHTS Assay for Inhibitors of Human Jumonji Domain Containing 2E (JMJD2E)
Conditions: JMJD2E catalytic domain, FDH-coupled NADH fluorescence (FDH is formaldehyde dehydrogenase); series mostly up to 57.1 µM
Note: nearly all actives have a fitted effect of over 50% in size.
Potency is the fitted concentration of half-maximal effect; tags give direction and shape of the fitted curve.

Question: `COc1ccc(N=Nc2nc3ccc(Br)cc3n2C)cc1` was tested. Which Potency did it give?
Answer: inactive

Question: `O=C(NC(=S)NCc1ccccc1)c1cccnc1` was tested. Which Potency did it give?
Answer: inactive

Question: Which Potency does the source give for `COc1ccc(-n2nnc3c(=O)n(CC(=O)Nc4cc(C)on4)cnc32)cc1OC` here?
Answer: inconclusive: 6.31 µM [inhibitor, single point]

Question: With `CSCCC(NS(=O)(=O)c1ccccc1F)C(=O)OCc1ccccc1Cl` (stereo not given) as the compound, how does the Potency read?
Answer: inactive

Question: For `O=C1CCC/C(=N/NC(=O)c2sc3ccccc3c2Cl)C1`, which Potency is on record?
Answer: inconclusive: 39.8 µM [inhibitor, single point]

Question: `Cc1c(NC(=O)C(C)OC(=O)c2ccc([N+](=O)[O-])s2)c(=O)n(-c2ccccc2)n1C` (stereo not given) was tested. Which Potency did it give?
Answer: inactive

Question: How did the Potency turn out when `COc1cccc(OCc2cc(/C=N/Nc3ccc(C(=O)O)cc3)ccc2OC)c1` was run?
Answer: inconclusive: 28.2 µM [inhibitor, single point]

Question: `CNC(=O)/C(C#N)=C/c1c(F)cccc1Cl` was tested. Which Potency did it give?
Answer: inconclusive: 28.2 µM [inhibitor, partial curve]

Question: With `CCOC(=O)c1cc2n(c1/N=C/N(C)C)-c1ccccc1C2=O` as the compound, how does the Potency read?
Answer: inconclusive: 28.2 µM [inhibitor, partial curve]

Question: With `Cc1ccc2nc(NC(=O)COC(=O)c3ccc(Br)o3)sc2c1` as the compound, how does the Potency read?
Answer: inconclusive: 39.8 µM [inhibitor, single point]

Question: For `COC(=O)c1ccsc1NC(=O)c1ccccc1`, which Potency is on record?
Answer: inconclusive: 35.5 µM [inhibitor, single point]

Question: How did the Potency turn out when `Cc1ccc(-c2cc(C(F)F)n3ncc(C(=O)NCc4ccco4)c3n2)cc1` was run?
Answer: inconclusive: 8.91 µM [inhibitor, single point]

Question: How did the Potency turn out when `CCn1c2ccccc2c2cc(NC(=O)c3cccc(OC)c3OC)ccc21` was run?
Answer: inconclusive: 35.5 µM [inhibitor, single point]

Question: For `COC(=O)c1nnc(C(=O)N(C)Cc2ccccc2)c2[nH]c3ccccc3c12`, which Potency is on record?
Answer: inactive

Question: For `Nc1nonc1-n1nnc(C(=O)N/N=C/C=C/c2ccccc2)c1CSC1=NCCS1`, which Potency is on record?
Answer: inconclusive: 39.8 µM [inhibitor, single point]

Question: With `C#CCn1c(=NC(=O)c2ccc(S(=O)(=O)N3CCCc4ccccc43)cc2)sc2cc(S(N)(=O)=O)ccc21` as the compound, how does the Potency read?
Answer: inconclusive: 25.1 µM [inhibitor, single point]

Question: `CCN1CCN(CC(=O)N2N=C(c3cccs3)CC2c2ccc(OC)c(OC)c2)C(=O)C1=O` (stereo not given) was tested. Which Potency did it give?
Answer: inconclusive: 25.1 µM [inhibitor, single point]

Question: `CC1=CC(=O)C2=C(C)CCC3C(C)C(=O)OC3C12` (stereo not given) was tested. Which Potency did it give?
Answer: inactive

Question: Which Potency does the source give for `CC(c1nccs1)N(C)c1nc2nonc2nc1NC1CC1` (stereo not given) here?
Answer: inconclusive: 28.2 µM [inhibitor, single point]

Question: For `COc1cc(CN2CCNC(=O)C2CC(=O)N(C)Cc2cccnc2)cc(OC)c1` (stereo not given), which Potency is on record?
Answer: inactive

Question: Which Potency does the source give for `COc1ccc(-c2nn(-c3ccccc3)cc2/C=N/Nc2ccccn2)cc1OC` here?
Answer: inconclusive: 35.5 µM [inhibitor, single point]

Question: Which Potency does the source give for `C#Cc1ccc([C@H]2C=C(C(=O)Nc3ccccc3)O[C@@H](OCc3ccc(CO)cc3)C2)cc1` here?
Answer: inactive

Question: With `CCN(CC)c1ccc(/C=C(/C#N)C(=O)NCc2ccccc2)o1` as the compound, how does the Potency read?
Answer: inconclusive: 22.4 µM [inhibitor, single point]

Question: How did the Potency turn out when `Nc1nnc(SCC(=O)OCc2ccc(F)cc2)s1` was run?
Answer: inconclusive: 35.5 µM [inhibitor, single point]

Question: With `CCCc1cc(=O)n2[nH]c(NCc3c(F)cccc3Cl)nc2n1` as the compound, how does the Potency read?
Answer: inconclusive: 39.8 µM [inhibitor, single point]

Question: With `Cc1ccc(N=CC=C2OC(C)(C)C(C)(C)O2)cc1` as the compound, how does the Potency read?
Answer: inconclusive: 14.1 µM [inhibitor, single point]

Question: For `CCCC(=O)NC(c1cccs1)c1cc(Cl)c2cccnc2c1O` (stereo not given), which Potency is on record?
Answer: inconclusive: 22.4 µM [inhibitor, single point]

Question: Which Potency does the source give for `O=C(NNc1c2ccccc2nc2ccccc12)c1ccccc1O` here?
Answer: inconclusive: 39.8 µM [inhibitor, single point]

Question: Which Potency does the source give for `CC(C)(C)NC(=O)CSc1nnc(-c2ccccn2)n1Cc1ccccc1` here?
Answer: inactive

Question: Which Potency does the source give for `O=C(Cc1ccccc1)Nc1ccc(-c2nnc(-c3ccco3)o2)cc1` here?
Answer: inconclusive: 28.2 µM [inhibitor, partial curve]

Question: For `O=C(Nc1cccc(-c2cn3cccnc3n2)c1)c1ccc(Br)o1`, which Potency is on record?
Answer: inconclusive: 11.2 µM [inhibitor, partial curve]

Question: For `N#Cc1nc(-c2cccc3ccccc23)oc1NCCN1CCCCC1`, which Potency is on record?
Answer: inconclusive: 25.1 µM [inhibitor, partial curve]

Question: With `CC1CN(C2=N/C(=C/c3ccc4c(c3)OCO4)C(=O)N2)CC(C)O1` (stereo not given) as the compound, how does the Potency read?
Answer: inconclusive: 25.1 µM [inhibitor, single point]

Question: For `CC(Sc1ccc2c(c1)OCCO2)C(=O)Nc1ccc2c(c1)OCO2` (stereo not given), which Potency is on record?
Answer: inactive

Question: Which Potency does the source give for `CCCOc1ccc(C(=O)NNC(=S)NC(=O)c2ccco2)cc1` here?
Answer: inconclusive: 39.8 µM [inhibitor, single point]

Question: For `COCCCNC(=O)c1cccn2c(=O)c3cc4ccccc4cc3nc12`, which Potency is on record?
Answer: inconclusive: 12.6 µM [inhibitor, partial curve]

Question: How did the Potency turn out when `Cn1c(SCC(=O)N/N=C/C=C/c2ccccc2[N+](=O)[O-])nc2ccccc21` was run?
Answer: inactive

Question: For `Cc1ccc(Cn2c(SCCN3CCOCC3)nc3c2c(=O)n(C)c(=O)n3C)cc1`, which Potency is on record?
Answer: inactive

Question: `Cc1cc(/C=C(/C#N)c2nc3ccccc3[nH]2)c(C)n1-c1cccc([N+](=O)[O-])c1` was tested. Which Potency did it give?
Answer: inconclusive: 7.08 µM [inhibitor, single point]

Question: `Cc1ccc(Nc2nc3ccccc3nc2-n2nc(C)cc2C)cc1` was tested. Which Potency did it give?
Answer: inconclusive: 8.91 µM [inhibitor, single point]

Question: Which Potency does the source give for `Oc1ccc(-c2[nH]ncc2-c2nc3ccccc3s2)c(O)c1` here?
Answer: inconclusive: 28.2 µM [inhibitor, partial curve]

Question: How did the Potency turn out when `CC(=O)c1cc(CC=C(C)C)c(O)c(CC=C(C)C)c1O` was run?
Answer: inactive

Question: `COc1ccnc(CSC(N)=Nc2ccc(F)cc2)c1` was tested. Which Potency did it give?
Answer: inconclusive: 39.8 µM [inhibitor, single point]

Question: How did the Potency turn out when `c1ccc(-c2ccc(-c3ccccn3)s2)nc1` was run?
Answer: inconclusive: 28.2 µM [inhibitor, partial curve]

Question: With `CC(C)(C)c1cc(CN2CCCCC2)cc(C(C)(C)C)c1O` as the compound, how does the Potency read?
Answer: inconclusive: 39.8 µM [inhibitor, single point]

Question: How did the Potency turn out when `CCC(=O)Nc1ccc2nc(C)n(CC(=O)Nc3ccccc3)c(=O)c2c1` was run?
Answer: inconclusive: 28.2 µM [inhibitor, partial curve]

Question: `NS(=O)(=O)c1ccc(N/N=C/c2cn(-c3ccccc3)nc2-c2cccs2)cc1` was tested. Which Potency did it give?
Answer: inconclusive: 28.2 µM [inhibitor, partial curve]

Question: With `CCn1c(=O)c2cc(C(=O)N3CCN(C)CC3)sc2c2ccccc21` as the compound, how does the Potency read?
Answer: inconclusive: 28.2 µM [inhibitor, partial curve]

Question: Which Potency does the source give for `Cc1ccc(NC(=O)c2ccc(NCCc3ccccc3)c([N+](=O)[O-])c2)cc1F` here?
Answer: inactive

Question: `CCOC(=O)C1CCN(Cc2ccc(F)c(F)c2)CC1` was tested. Which Potency did it give?
Answer: inactive

Question: `Cc1cnn(Cc2cccnc2)c1N` was tested. Which Potency did it give?
Answer: inactive

Question: Which Potency does the source give for `COc1nc(-c2ccc(C)cc2)ccc1-c1noc(-c2ccco2)n1` here?
Answer: inconclusive: 35.5 µM [inhibitor, partial curve]

Question: `CCCSc1nsc(NC(=O)CCC)n1` was tested. Which Potency did it give?
Answer: inactive

Question: With `O=C(CSc1ccc(-c2ccccn2)nn1)NC1CCCCC1` as the compound, how does the Potency read?
Answer: inconclusive: 39.8 µM [inhibitor, single point]

Question: How did the Potency turn out when `Cc1cccc(NS(=O)(=O)c2ccc(Oc3ccccc3)cc2)n1` was run?
Answer: inconclusive: 35.5 µM [inhibitor, partial curve]

Question: How did the Potency turn out when `COc1ccc(-c2coc3cc(OC)cc(OC)c3c2=O)cc1` was run?
Answer: inconclusive: 39.8 µM [inhibitor, single point]

Question: For `NC[C@@H]1O[C@H](O[C@@H]2[C@H](O[C@@H]3O[C@H](CO)[C@@H](O)[C@@H]3O)[C@@H](O)[C@@H](N)C[C@H]2N)[C@@H](N)[C@H](O)[C@@H]1O`, which Potency is on record?
Answer: inactive

Question: Which Potency does the source give for `CCCC(=O)Nc1ccc(-c2nc3cc(C)c(C)cc3o2)cc1` here?
Answer: inconclusive: 0.794 µM [inhibitor, full curve]

Question: For `O=c1c(O)c(-c2ccccc2)oc2cc(O)ccc12`, which Potency is on record?
Answer: inconclusive: 31.6 µM [inhibitor, single point]

Question: For `Cc1ccc(-c2nn3c(C)nnc3s2)cc1NC(=O)c1ccc(-c2ccc(Cl)cc2Cl)o1`, which Potency is on record?
Answer: inconclusive: 10 µM [inhibitor, partial curve]

Question: Which Potency does the source give for `COC(=O)c1cn(NC(=O)/C=C/c2cccc(OC)c2OC)c(=O)c2ccccc12` here?
Answer: inconclusive: 20 µM [inhibitor, partial curve]

Question: With `COc1cc(C(=O)N/N=C(\Cc2ncc[nH]2)c2ccccc2)cc(OC)c1OC` as the compound, how does the Potency read?
Answer: inconclusive: 39.8 µM [inhibitor, single point]

Question: For `CCOC(=O)CSc1nnc(-c2ccco2)n1-c1ccccc1`, which Potency is on record?
Answer: inactive

Question: How did the Potency turn out when `NNc1ccc(Cl)c(C(=O)O)c1` was run?
Answer: inconclusive: 39.8 µM [inhibitor, single point]

Question: For `Nc1nc(N)c(C=Nc2ccc(Br)cc2)c(Nc2ccc(Br)cc2)n1`, which Potency is on record?
Answer: inactive

Question: Which Potency does the source give for `COc1cccc(N2CCN(CC(=O)c3c[nH]c4ccc(OC)cc34)CC2C)c1` (stereo not given) here?
Answer: inconclusive: 31.6 µM [inhibitor, single point]

Question: Which Potency does the source give for `Cc1cc(N)n(-c2ccc([N+](=O)[O-])cc2)n1` here?
Answer: inactive

Question: For `O=[N+]([O-])c1cc(Br)c(O)c(/C=N/Nc2nc3ccccc3s2)c1`, which Potency is on record?
Answer: inconclusive: 5.62 µM [inhibitor, full curve, poor fit]

Question: `COC(=O)c1[nH]c2ccc(C)cc2c1NC(=O)CN1CCc2cc(OC)c(OC)cc2C1` was tested. Which Potency did it give?
Answer: inconclusive: 31.6 µM [inhibitor, partial curve]

Question: `CC(C)(C)CN1CCNC(=O)C1CC(=O)N1CCC(C(=O)N2CCOCC2)CC1` (stereo not given) was tested. Which Potency did it give?
Answer: inconclusive: 39.8 µM [inhibitor, single point]
